According to PubChem BioAssay AID2546 (National Center for Advancing Translational Sciences (NCATS), 2010):
Hit rate of the full screen: of about 310,000 compounds, about 11,000 (3.5%) were called active. The inconclusive results got no clear call from the source; some entries with a clear call stand among them for comparison. The call rests on the fitted dose curve; in most records, active means well fitted inhibition curve with a large enough effect; inconclusive means small, poorly fitted or top-dose-only effect, or effect the other way; inactive means flat fitted curve, though single readings scatter. No potency is given beside an inconclusive call; the fits are too rough.

assay: VP16 counterscreen qHTS for inhibitors of ROR gamma transcriptional activity; conditions: Drosophila S2 Gal4-VP16 UAS-luciferase, luminescence, 20 h; activity, negative = inhibition: at 53.6 µM (top of the series);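 further: Gal4-VP16 expression switched on by copper sulfate through the metallothionein promoter; nearly all actives have a fitted effect of over 50% in size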
On the % scale 0 is the no-effect control and ±100 the full control effect; potency means the concentration at half of the fitted maximal effect; tags describe the fitted curve by direction and shape.

Row | SMILES | Potency | activity, negative = inhibition
1 | Cn1ncc2c1ncn1nc(COc3ccc4ccccc4c3)nc21 | inconclusive [inhibitor, single point] | 
2 | Nc1nc(NC(=O)C(Cl)(Cl)Cl)nn1-c1ccccc1 | inconclusive [inhibitor, single point] | 
3 | CN1CCN(C(=S)NC(=O)/C=C/c2cccs2)CC1 | inconclusive [inhibitor, single point] | 
4 | Cc1[nH]c2c(C)cccc2c1CCNC(=O)c1ccc2c(c1[N+](=O)[O-])C(=O)c1ccccc1C2=O | inconclusive [inhibitor, partial curve] | 
5 | CCN(CC)S(=O)(=O)c1ccc(C(=O)NCCN2C(=O)S/C(=C\c3cccnc3)C2=O)cc1 | inconclusive [activator, partial curve] | 
6 | Cn1c(=O)c(C(=O)NNC(=O)c2ccccc2F)c(O)c2ccccc21 | inconclusive [inhibitor, single point] | 
7 | Cc1occc1C(=O)N/N=C/c1ccc(-c2ccccc2)cc1 | inconclusive [inhibitor, full curve] | 
8 | CCOC(=O)c1[nH]c2ccc(Cl)cc2c1NC(=O)/C=C/c1ccc2c(c1)OCO2 | active: 4.47 µM | 
9 | Cc1cc(C(=O)N/N=C/c2cc([N+](=O)[O-])cc(C)c2O)n[nH]1 | active: 14.1 µM | 
10 | O=C(N/N=C/C=C/c1ccccc1)c1n[nH]c2c1CCC2 |  | inactive: -25.4%
11 | Cc1cc(Cl)ccc1NC(=S)Nc1ccccn1 | active: 1.26 µM | 
12 | CC(c1ccccc1)N1CCC(CNC(=S)Nc2cccc(Cl)c2)C1 (stereo not given) | inconclusive [inhibitor, single point] | 
13 | Cc1ccc(S(=O)(=O)N2C(=O)CCC2C(=O)O/N=C(\N)c2ccc([N+](=O)[O-])cc2)cc1 (stereo not given) | inconclusive [inhibitor, partial curve] | 
14 | Cc1ccc(NC(=S)Nc2ccc(F)cc2)c(C)c1 | inconclusive [inhibitor, single point] | 
15 | CCn1c2ccccc2c2cc(NC(=O)c3cc(OC)cc(OC)c3)ccc21 | inconclusive [inhibitor, single point] | 
16 | Cc1sc2nc(COC(=O)c3cccc(OC(F)F)c3)[nH]c(=O)c2c1C | inconclusive [inhibitor, single point] | 
17 | Cc1ccccc1C(=O)NNC(=O)c1ccoc1C | inconclusive [inhibitor, single point] | 
18 | C=CCN(C(=O)CNC(=O)c1ccco1)C(C(=O)NC1CCCCC1)c1cccnc1 (stereo not given) |  | inactive: -1.23%
19 | CCc1cc(-c2n[nH]c(C)c2-c2nc3ccccc3n2C)c(O)cc1O |  | inactive: 2.33%
20 | COc1ccc(-c2n[nH]c(=S)n2Cc2ccccc2)cc1OC | inconclusive [inhibitor, single point] | 
21 | Cc1ccccc1CN1CCN(CC(=O)NCCCN2CCN(c3ccc(F)cc3)CC2)C1=O | inconclusive [inhibitor, single point] | 
22 | O=C(CNc1ccccc1)NNC1=NCCC1 | inconclusive [inhibitor, single point] | 
23 | C/C(CC(=O)Nc1ccc(N(C)C)cc1)=N\NC(=O)c1ccccc1O | inconclusive [inhibitor, single point] | 
24 | CCOC(=O)c1c(-c2ccccc2)csc1NC(=O)CSc1nnc(C)s1 | inconclusive [inhibitor, single point] | 

Row | SMILES | Potency | activity, negative = inhibition
25 | S=C(NCc1cccs1)Nc1cccc2ccccc12 | inconclusive [inhibitor, single point] | 
26 | Cc1cc(NC(=O)CCSc2nc(-c3ccco3)cc(C(F)(F)F)n2)no1 | inconclusive [inhibitor, single point] | 
27 | CC(C)NC(=O)COc1ccc(OCc2ccccc2)cc1 |  | inactive: -16.9%
28 | COc1ccc(-c2nc3ccc([N+](=O)[O-])cc3[nH]2)cc1 | inconclusive [inhibitor, single point] | 
29 | CCOC(=O)CSCC(NC(=O)OC(C)(C)C)C(=O)OCC (stereo not given) | inconclusive [inhibitor, partial curve] | 
30 | COc1ccccc1OCCSc1nnc(C)n1-c1ccccc1 |  | inactive: -8.41%
31 | Cc1cc(C)cc(Cn2ncc(Cl)c(Cl)c2=O)c1 | active: 11.2 µM | 
32 | C(=N\N1CCN(C2c3ccccc3-c3ccccc32)CC1)/c1cccnc1 | inconclusive [inhibitor, single point] | 
33 | COc1ccc(-c2cc(-c3ccccc3O)[nH]n2)cc1OC | inconclusive [inhibitor, single point] | 
34 | CCCC(=O)NC(NC(=S)Nc1ccc(N=Nc2ccccc2)cc1)C(Cl)(Cl)Cl (stereo not given) | inconclusive [inhibitor, single point] | 
35 | O=C(CN(c1ccc(Cl)cc1)S(=O)(=O)c1ccc(Cl)c([N+](=O)[O-])c1)NCCc1ccc(F)cc1 | active: 7.08 µM | 
36 | Cc1ccc(C(=O)CCS(=O)(=O)c2ccc(F)cc2)cc1 | active: 3.55 µM | 
37 | Cc1ccc(/C=C2\SC(=S)N(CC3CCCO3)C2=O)o1 (stereo not given) | inconclusive [inhibitor, single point] | 
38 | Cc1cccc(Nc2nc(-c3ccc(O)cc3O)cs2)n1 | inconclusive [inhibitor, single point] | 
39 | CC(NC(=O)c1ccco1)C(c1cccs1)N1CCN(c2ccc(F)cc2)CC1 (stereo not given) | inconclusive [inhibitor, partial curve] | 
40 | COC(=O)c1sccc1NC(=O)Nc1cccc([N+](=O)[O-])c1 | inconclusive [activator, single point] | 
41 | O=C(Oc1ccccc1)c1cccc2cccnc12 | active: 3.98 µM | 
42 | O=C(/C=C/c1ccccc1)/C=C/c1ccccc1 | inconclusive [inhibitor, single point] | 
43 | O=S(=O)(NCc1ccccn1)c1cc(Cl)ccc1Cl | active: 10 µM | 
44 | Cc1ccc(NS(=O)(=O)c2cc(C(=O)Nc3cccc([N+](=O)[O-])c3)ccc2C)cc1 | inconclusive [inhibitor, single point] | 
45 | COCCSc1nnc(NC(=O)c2ccc(OC)c([N+](=O)[O-])c2)s1 |  | inactive: -7.77%
46 | N#C/C(=C(/O)COc1ccccc1)c1nc2ccccc2s1 | inconclusive [inhibitor, single point] | 
47 | Cc1ccc(/C=N/NC(=O)c2nnn(-c3nonc3N)c2C(C)C)s1 | active: 7.08 µM | 
48 | CN(C)CCCN(C(=O)c1ccc([N+](=O)[O-])o1)c1nc2cc3c(cc2s1)OCO3 | inconclusive [inhibitor, single point] | 

Row | SMILES | Potency | activity, negative = inhibition
49 | COc1ccc(CCNc2nc(-c3ccco3)cc(C(F)(F)F)n2)cc1OC |  | inactive: -0.666%
50 | O=C(Nc1ncc(Cc2cccc(Cl)c2)s1)c1cccs1 | active: 15.8 µM | 
51 | CC1CCN(c2nc(-c3cccnc3)nc3scc(-c4ccccc4)c23)CC1 | inconclusive [inhibitor, single point] | 
52 | COC(=O)c1cc(NC(=S)NC(=O)c2ccccc2)ccc1N1CCOCC1 | inconclusive [inhibitor, single point] | 
53 | CCC(C)NC(=O)Cn1c(=O)n(CCCCCC(=O)Nc2ccccc2)c(=O)c2sccc21 (stereo not given) | inconclusive [activator, single point] | 
54 | COCC(C)NC(=O)NC1(C(F)(F)F)Oc2ccc(Cl)cc2O1 (stereo not given) | active: 11.2 µM | 
55 | COc1ccccc1-n1c(C)cc(/C=C2/C(=N)N3C(=NC2=O)SN=C3S(C)(=O)=O)c1C | inconclusive [activator, single point] | 
56 | C=C(C)COc1ccc(-c2nc(N)ncc2-c2ccc(Cl)cc2)c(O)c1 | inconclusive [inhibitor, single point] | 
57 | O=C1OC(c2ccc3c(c2)OCO3)N(C(=O)c2ccc(Cl)c(Cl)c2)c2ccccc21 (stereo not given) | inconclusive [inhibitor, single point] | 
58 | Cc1cc(C)nc(N/N=C/c2ccccc2OCc2ccc(Cl)cc2)n1 | inconclusive [inhibitor, single point] | 
59 | O=C(Cn1cc2c(n1)CCCC2)Nc1cc(-c2cccc(Cl)c2)no1 | inconclusive [inhibitor, single point] | 
60 | Cc1ccc(S(=O)(=O)Nc2ccc3c(c2)n(C)c(=O)n3C)c(C)c1 | inconclusive [inhibitor, partial curve, poor fit] | 
61 | CC1(C)CC(N=C=O)CC(C)(CN=C=O)C1 (stereo not given) |  | inactive: 0.582%
62 | COc1ccc(C)cc1NC(=S)N1CC(C)OC(C)C1 (stereo not given) |  | inactive: 0.563%
63 | S=C1NC[C@H](CC2CCCCC2)N1CCc1cccc2ccccc12 | active: 0.631 µM | 
64 | CC(C)(C)n1nnnc1C(c1cccs1)N1CCCC2(CCCCC2)C1 (stereo not given) | inconclusive [inhibitor, single point] | 
65 | CC(Sc1nnnn1-c1ccccc1)C(=O)Nc1ccc(Cl)cn1 (stereo not given) | inconclusive [inhibitor, single point] | 
66 | CC1CCCN(S(=O)(=O)c2cnc[nH]2)C1 (stereo not given) |  | inactive: -5.39%
67 | CC(C)c1ccc(NC(=S)N(C)CCc2ccccn2)cc1 | inconclusive [inhibitor, single point] | 
68 | CCCc1[nH]nc2c1C(c1ccccc1OC)C(C#N)=C(N)O2 (stereo not given) |  | inactive: 8.53%
69 | Cc1onc(-c2ccccc2)c1C(=O)Nc1ncc([N+](=O)[O-])s1 | inconclusive [inhibitor, single point] | 
70 | O=C(Oc1cccc(/C=N/Nc2nc(N3CCOCC3)nc(N3CCOCC3)n2)c1)c1ccco1 |  | inactive: -2.66%
